Key:
Ovcar5-58P1D12 tumors = test: Ovcar5-58P1D12 ovarian tumors grown in mouse tibiae; format: in vivo, SCID mice; conditions: Day 42; 500 μg i.p. twice weekly, 12 doses; vs control antibody, p=0.0002
Description: FIG. 14. […] Ovcar5-58P1D12 expressing tumor cells (2.0×10^6 cells) were implanted into the right tibiae of female SCID mice.
(§1) Tumor growth is monitored using calipers.
In this experiment, Ovcar5-58P1D12 expressing tumor cells (2.0×10^6 cells) were implanted into the right tibiae of female SCID mice.

[1] = tested on: LAPC9-AI prostate tumor xenografts; test: Established LAPC9-AI prostate tumor xenografts in tibiae, monotherapy and combination with Carboplatin; format: in vivo, SCID mice; conditions: day 33; MAb 2 mg loading then 1.0 mg i.p. two times a week, 7 doses; Carboplatin 40 mg/kg i.v. days 7, 11, 15, 19, 22, 26; vs control antibody
Procedure: FIG. 16. […] The tumors were allowed to establish for 7 days, at which time the animals were randomized and assigned to four different groups (n=10 in each group) as indicated in the graph. […] Carboplatin (40 mg/kg) was administered to the mice intravenously (i.v.) on days 7, 11, 15, 19, 22 and 26. On day 33 all mice were sacrificed and the tumors were excised and weighed on an electronic balance.
The tumors were allowed to establish for 7 days, at which time the animals were randomized and assigned to four different groups (n=10 in each group). […] Carboplatin (40 mg/kg) was administered to the mice intravenously (i.v.) on days 7, 11, 15, 19, 22 and 26. On day 33 all mice were sacrificed and the tumors were excised and weighed on an electronic balance.

[2] = target: T1, 58P1D12 expressed on 3T3 cells (Homo sapiens, UniProt Q9H9P2); test: Affinity determination by FACS; format: binding
T1 construct: expressed in transfected cells; host or cells: 3T3 cells (3T3-58P1D12); retroviral pSRα transduction is described only in general terms
T1 sequence (Q9H9P2 22-273): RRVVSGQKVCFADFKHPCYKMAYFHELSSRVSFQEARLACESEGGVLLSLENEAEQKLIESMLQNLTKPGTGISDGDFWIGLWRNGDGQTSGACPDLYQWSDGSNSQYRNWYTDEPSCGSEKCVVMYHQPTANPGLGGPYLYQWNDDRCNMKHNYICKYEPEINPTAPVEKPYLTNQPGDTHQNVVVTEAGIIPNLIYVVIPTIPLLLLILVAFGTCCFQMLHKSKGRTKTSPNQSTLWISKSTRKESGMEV
Procedure: At the end of the incubation, cells were washed and incubated with anti-hIgG-PE detection antibody for 45 min at 4° C. After washing the unbound detection antibodies, the cells were analyzed by FACS. Mean Florescence Intensity (MFI) values were obtained as listed in (Table VI(A)).

[3] = tested on: 3T3-58P1D12 tumor xenografts; test: Established 3T3-58P1D12 tumors grown in mouse tibiae; format: in vivo, SCID mice; conditions: day 24; loading dose 1.5 mg then 750 μg i.p. twice weekly, 6 doses from day 7; vs control antibody, <0.01
Description: FIG. 12. […] Tumor growth was monitored every 3 to 4 days using caliper measurements.
as §1
Tumor growth was monitored every 3 to 4 days using caliper measurements.

MDCK/58P1D12 cells = test: Boyden Transwell chamber cell migration assay; format: cell-based, Canine; conditions: 25 μg/mL MAb, 16 hours
Procedure: FIG. 5. […] Canine MDCK cells were transduced with retroviruses (empty vector [Neo] or 58P1D12). […] Cells captured on the bottom filter were labeled with Calcein AM dye for 30 minutes and photographed. Empty vector expressing cells were included for negative control. The level of cell fluorescence (migration) was quantitated with MetaMorph imaging software.
FIG. 7. Comparison of 58P1D12 MAbs for Functional Activity in vitro. […] Tumor cell migration was evaluated using MDCK/58P1D12 cells in the Boyden Transwell chamber migration assay. Migration was evaluated by plating 4×10^4 MDCK/58P1D12 cells into the upper chamber of a Boyden Transwell apparatus in 0.1% FBS plus 25 μg/mL control MAb or 58P1D12 MAb, and allowing the cells to migrate for 16 hours toward 10% FBS in the lower chamber. Cells captured on the bottom filter were labeled with Calcein AM dye for 30 minutes and photographed. The level of cell fluorescence (migration) was quantitated with MetaMorph imaging software.
Cells captured on the bottom filter were labeled with Calcein AM dye for 30 minutes and photographed. The level of cell fluorescence (migration) was quantitated with MetaMorph imaging software.
Tumor cell migration was evaluated using MDCK/58P1D12 cells in the Boyden Transwell chamber migration assay. […] The level of cell fluorescence (migration) was quantitated with MetaMorph imaging software.

[4] = tested on: 3T3-58P1D12 tumor xenografts; test: 3T3-58P1D12 tumor xenografts, right flank; format: in vivo, SCID mice; conditions: day 27; 500 μg i.p. twice weekly, 8 doses from Day 0; vs control antibody, p<0.0001
Description: FIG. 11. […] 3T3-58P1D12 cells (5.0×10^6 cells) were embedded in Matrigel and implanted into the right flanks of male SCID mice on Day 0. […] Tumor growth was monitored every 3 to 4 days using caliper measurements.
Subcutaneous (s.c.) tumors are generated by injection of 5×10^4-10^6 cancer cells mixed at a 1:1 dilution with Matrigel (Collaborative Research) in the right flank of male SCID mice. To test antibody efficacy on tumor formation, i.e. antibody injections are started on the same day as tumor-cell injections. As a control, mice are injected with either purified mouse IgG (ICN) or PBS; or a purified MAb that recognizes an irrelevant antigen not expressed in human cells. In preliminary studies, no difference is found between mouse IgG or PBS on tumor growth. Tumor sizes are determined by caliper measurements, and the tumor volume is calculated as length×width×height. Mice with subcutaneous tumors greater than 1.5 cm in diameter are sacrificed.
In this experiment, 3T3-58P1D12 cells (5.0×10^6 cells) were embedded in Matrigel and implanted into the right flanks of male SCID mice on Day 0. […] Tumor growth was monitored every 3 to 4 days using caliper measurements.

B1: Ha8-4c4.1: fully human γ1κ monoclonal antibody to 58P1D12 (Ha8-4c4.1 VH & Ha8-4c4.1 VL clone 1-B3); hybridoma ATCC PTA-9404 (antibody, V domains shown)
VH: QVQLQESGPGLVKPSETLSLTCTVSGGSVSSGGYYWSWIRQPPGKGLEWIGYIYYSGGTNYNPSLKSRVTISVDTSKNQFSLKLTSVTAADTAVYYCARESGYCTNVACFPDAFDIWGQGTMVTVSS
VL: DIVMTQSPDSLAVSLGERATINCKSSQGVLYSSNNKNYLAWYQQKPGQPPKLLIYWASTRESGVPDRFSGSGSGTDFTLTISSLQAEDVAVYFCQQYYVSPLTFGGGTKVEIKR
inhibition of growth (tumor weight) (Ovcar5-58P1D12 tumors): 56% | inhibition of tumor growth (tumor weight) [1]: 76% | 58P1D12-3T3 (MFI) ([2]; Ha8-4c4.1 MAb concentration 0.0049 nM): 0 | 58P1D12-3T3 (MFI) ([2]; Ha8-4c4.1 MAb concentration 0.0195 nM): 8 | 58P1D12-3T3 (MFI) ([2]; Ha8-4c4.1 MAb concentration 0.0391 nM): 18 | 58P1D12-3T3 (MFI) ([2]; Ha8-4c4.1 MAb concentration 0.0781 nM): 30 | 58P1D12-3T3 (MFI) ([2]; Ha8-4c4.1 MAb concentration 0.156 nM): 58 | 58P1D12-3T3 (MFI) ([2]; Ha8-4c4.1 MAb concentration 0.313 nM): 110 | 58P1D12-3T3 (MFI) ([2]; Ha8-4c4.1 MAb concentration 0.625 nM): 201 | 58P1D12-3T3 (MFI) ([2]; Ha8-4c4.1 MAb concentration 1.3 nM): 340 | 58P1D12-3T3 (MFI) ([2]; Ha8-4c4.1 MAb concentration 2.5 nM): 558 | 58P1D12-3T3 (MFI) ([2]; Ha8-4c4.1 MAb concentration 5.0 nM): 828 | 58P1D12-3T3 (MFI) ([2]; Ha8-4c4.1 MAb concentration 10 nM): 1052 | 58P1D12-3T3 (MFI) ([2]; Ha8-4c4.1 MAb concentration 20 nM): 1185 | 58P1D12-3T3 (MFI) ([2]; Ha8-4c4.1 MAb concentration 40 nM): 1167 | 58P1D12-3T3 (MFI) ([2]; Ha8-4c4.1 MAb concentration 80 nM): 1198 | inhibition of growth of established tumors [3]: approximately 63% | inhibition of cell migration (MDCK/58P1D12 cells; 0.1% FBS toward 10% FBS, vs control MAb, p<0.0001): approximately 45% | effect on tumor cell migration (comparison of 58P1D12 MAbs) (MDCK/58P1D12 cells): inhibited cell migration | inhibition of tumor growth (tumor volume) [4]: approximately 78%
